Data from PMC4336329 (PLoS ONE, 2015).
Out of some 310,000 compounds screened, about 14,000 (4.5%) showed an effect of 50% or more. Effects have a minus sign here. The list shows a part of the results.

target: human ether-à-go-go-related gene (hERG) potassium channel (human, UniProt Q12809); assay: primary screen, population patch clamp on CHO cells stably expressing hERG
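Also: peak tail current of the secondary pulse compared with the same well before compound.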

Chain of human ether-à-go-go-related gene (hERG) potassium channel (Q12809 whole entry, looked up): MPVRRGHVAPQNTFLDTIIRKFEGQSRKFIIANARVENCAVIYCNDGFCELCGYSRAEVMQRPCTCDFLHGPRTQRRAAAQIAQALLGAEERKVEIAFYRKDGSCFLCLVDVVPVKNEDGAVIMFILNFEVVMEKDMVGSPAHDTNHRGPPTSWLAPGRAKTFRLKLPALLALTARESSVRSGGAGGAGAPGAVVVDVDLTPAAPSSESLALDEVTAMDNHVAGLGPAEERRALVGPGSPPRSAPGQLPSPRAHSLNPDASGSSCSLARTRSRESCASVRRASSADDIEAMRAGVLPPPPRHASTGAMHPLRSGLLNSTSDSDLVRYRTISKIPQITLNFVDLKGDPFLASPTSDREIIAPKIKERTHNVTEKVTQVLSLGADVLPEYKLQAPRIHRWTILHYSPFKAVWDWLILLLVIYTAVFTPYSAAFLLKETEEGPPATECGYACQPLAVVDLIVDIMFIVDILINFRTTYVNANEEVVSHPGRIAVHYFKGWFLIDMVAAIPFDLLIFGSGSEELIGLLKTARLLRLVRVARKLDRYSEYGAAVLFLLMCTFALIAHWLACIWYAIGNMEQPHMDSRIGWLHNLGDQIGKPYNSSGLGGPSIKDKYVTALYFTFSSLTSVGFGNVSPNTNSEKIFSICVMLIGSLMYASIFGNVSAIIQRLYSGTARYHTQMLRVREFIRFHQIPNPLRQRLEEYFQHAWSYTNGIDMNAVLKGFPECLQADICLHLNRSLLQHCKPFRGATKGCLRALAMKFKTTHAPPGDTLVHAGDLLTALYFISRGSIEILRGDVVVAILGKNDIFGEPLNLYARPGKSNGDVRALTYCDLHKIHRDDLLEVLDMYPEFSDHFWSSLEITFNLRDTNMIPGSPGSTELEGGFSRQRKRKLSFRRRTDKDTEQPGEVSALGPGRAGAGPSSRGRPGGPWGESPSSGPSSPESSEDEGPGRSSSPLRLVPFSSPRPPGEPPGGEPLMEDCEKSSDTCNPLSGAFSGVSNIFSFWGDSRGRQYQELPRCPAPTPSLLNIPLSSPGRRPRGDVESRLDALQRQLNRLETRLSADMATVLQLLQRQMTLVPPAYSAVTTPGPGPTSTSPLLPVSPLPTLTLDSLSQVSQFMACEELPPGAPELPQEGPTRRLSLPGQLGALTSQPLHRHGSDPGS

Structure (SMILES)	hERG current change (%, negative = inhibition) at 10uM [%]
COCC(=O)Nc1nc(-c2ccccc2)ns1	-4.27
O=c1cc(CSc2ccccc2)[nH]c2ccccc12	8.17
O=C(Cc1ccccc1)N1CCc2ccccc21	-9.57
COc1ccc(OC)c(NC(=O)c2ccc(CSc3ncccn3)cc2)c1	8.99
COc1ccc(OCC(=O)Nc2cc(-c3nn(C)c(=O)c4ccccc34)ccc2OC)cc1	7.36
O=C(NN1C(=O)C2C3C=CC(C3)[C@H]2C1=O)c1cccnc1 (stereo partly drawn)	19.5
COc1ccc(NC(=O)CN(C)C(=O)C2=NN(c3ccccc3)C(=O)CC2)cc1	7.07
Cc1nc(N)c(C#N)c(-c2cccnc2)c1-c1ccccc1	2.99
COc1ccc(C2C(C(=O)c3ccc(C)o3)=C(O)C(=O)N2Cc2ccco2)cc1OC (stereo not drawn)	21
COc1ccc(CNC(=O)c2cccc(NC(=O)c3ccccc3)c2)cc1	-71.5
OCCNCCCOc1cc(Cl)ccc1Cl	-14.4
O=C1NC(Cc2ccccc2)c2nc3ccccc3c(=O)n2-c2cc(Cl)ccc21 (stereo not drawn)	11.4
O=C1CN(C(=O)COc2ccccc2Cl)c2ccccc2N1	-13.8
CC(NCc1ccc(Cl)c(Cl)c1)C(O)c1ccccc1.Cl (stereo not drawn)	-0.311
COc1ccc(S(=O)(=O)Nc2cccc(C)c2C)c2cccnc12	-0.391
Cc1cc(Cl)c(C(=O)Nc2cccc(C(F)(F)F)c2)c(C)n1.Cl	-1.08
O=C(c1ccc(F)cc1)C1CCN(Cc2cn[nH]c2-c2ccc(F)cc2)CC1	-75.2
CCOC(=O)c1cnn(-c2ccccc2)c1NC(=O)CN1CCCCC1	6.45
Cc1ccc(F)cc1NC(=O)c1cccc2nccnc12	-9.21

Structure (SMILES)	hERG current change (%, negative = inhibition) at 10uM [%]
O=C(NCC1CCCO1)c1ccc2ccccc2n1 (stereo not drawn)	-3.04
COc1ccccc1NC(=O)C1=C(C)Nc2nnnn2C1c1cccc(Br)c1 (stereo not drawn)	-11.5
CCOC(=O)C1C(c2ccccc2)N(C)OC1(O)C(F)(F)F (stereo not drawn)	6.62
Cc1ccc(-c2csc(NC(=O)C[n+]3cc(-c4ccc(C)cc4)n4c3CCC4)n2)cc1.[Cl-]	-72.5
COc1cccc(N2C(=O)Nc3ccccc3C2(O)C(=O)NCc2ccc3c(c2)OCO3)c1 (stereo not drawn)	-10
O=C(Nc1ccc(-c2cn3ccccc3n2)cc1)c1ccco1	-11.4
O=[N+]([O-])c1ccccc1/C=C/C=N/n1c(-c2ccccc2F)n[nH]c1=S	0.859
COc1ccc(NC(=O)CSc2n[nH]c(N)n2)cc1OC	16.1
Cc1cccc(CN2CCC(CNC(=O)CSc3cc(=O)n(C)c4cc(Cl)ccc34)CC2)c1	-69.7
COC(=O)N1C(=O)[C@](c2ccccc2)(C(C)C)N1C(=O)OC	12.2
CN(CCCOc1ccccc1Br)Cc1ccccc1	-22.1
CC1CCCCN1CCNc1nc(=S)[nH]c2ccccc12 (stereo not drawn)	-67.5
CCC(=O)N(Cc1ccc2c(c1)OCO2)Cc1cc2cc(OC)ccc2[nH]c1=O	-2.61
Cc1ccc(N(C)C(=O)c2cc(S(=O)(=O)N3CCCC3)cn2C)cc1	-7.36
Cc1ccc(-c2nc(N3CCOCC3)s[n+]2-c2ccccc2)cc1.[O-][Cl+3]([O-])([O-])[O-]	9.31
CN(C)CCCNc1ncnc2sc(-c3ccccc3)cc12.O=C(O)C(=O)O	-60.2
C=CCN1N=C(c2ccc(NC(=O)c3ccccc3)cc2)CSC1=O	17.5
COc1ccc(OC)c(NC(=O)COC(=O)Cc2ccc(Br)cc2)c1	29.5
Cc1cccc(C(=O)O/N=C(\N)c2cccc([N+](=O)[O-])c2)c1	-11.4

Structure (SMILES)	hERG current change (%, negative = inhibition) at 10uM [%]
NC(=O)CN1CCN(Cc2ccc3c(c2)OCO3)CC1	30.6
COC(=O)c1cc(NC(=O)C23CCC(C)(C(=O)O2)C3(C)C)cc(C(=O)OC)c1 (stereo not drawn)	-0.126
CCc1[nH]c(=S)c(C#N)c(-c2ccccc2)c1C(=O)OC	25.5
COCCn1c(SCC(=O)Nc2nnc(C)s2)nnc1-c1ccoc1C	46.2
COc1ccc(Nc2nc(-c3cccs3)nc3ccccc23)c(OC)c1	-2.84
COc1cccc(OC)c1C1=CC(=O)C[C@H](c2ccc3c(c2)OCO3)C1	9.99
Cc1ccc(Cl)cc1NC(=S)N1CCCCCC1	12.3
COc1cc(C(=O)N2CCN(C(=O)Cc3ccccc3)CC2)cc(OC)c1OC	-20.2
CC(C)C1NC2(C(=O)c3ccccc3C2=O)C2C(=O)N(c3ccc(F)cc3)C(=O)C12 (stereo not drawn)	-0.14
CCOC(=O)c1c(C(=O)OCC)c(C)n(CCc2ccc(OC)c(OC)c2)c1C	-8.94
CC(=O)Nc1ccc2c(c1)ncn2C1CCCCC1	-1.69
CCOC(=O)c1cccc(NC(=O)c2cnc3ccccc3n2)c1	-14.1
O=C(COc1ncnc2sccc12)NC1CCS(=O)(=O)C1 (stereo not drawn)	9.65
CCOc1ccc(CCNC(=O)C2CC(=O)N(c3ccccc3OCC)C2)cc1OCC (stereo not drawn)	20.4
Cc1c(S(=O)(=O)c2ccccn2)c(N)n(Cc2ccccc2Cl)c1C	21.6
CC(C)[C@H](NC(N)=O)C(=O)Nc1cccc(S(=O)(=O)N2CCOCC2)c1	15.8
CCCCCC(C)n1[nH]c(=O)c2c(C)cc(C)nc21 (stereo not drawn)	-31.9
COc1cc(/C=C/C(=O)N2CCC=CC2=O)cc(OC)c1OC	10.1
CCOC(=O)N/N=C\c1ccc(OC(=O)c2ccco2)cc1	22.5
